Results reported in patent US20260042854A1, “ANTI-GLP-1R ANTIBODIES AND USES THEREOF” (SCIWIND BIOSCIENCES USA CO., LTD, priority 2022, published 2026).

How the values were obtained:
Monkey GLP-1R = target: T1, Monkey GLP-1R (Macaca fascicularis, UniProt F8V479); assay: cAMP HTRF antagonism assay in HEK293 transfected with monkey GLP-1R; format: cell-based
T1 construct: expressed in transfected cells; host or cells: HEK293 (ATCC, CRL-1573)
Experimental: (§1) HEK293 cells (ATCC, cat no. CRL-1573) were transfected with GLP-1R_pcDNA3.1/G418 (+) plasmids which can transcribe the mRNA of human (NM_002062.5), monkey (JN033215.1) and mouse (NM_021332.2) GLP-1R polypeptide. […] The plate was further incubated at 37° C. for 120 minutes. Finally, the CAMP level was measured with cAMP HTRF kit (Cisbio, 62AM4PEB). […] The data were analyzed by four-parameter curve fitting with GraphPad Prism 9, and IC50 was calculated.

hGLP-1R [1] = target: T2, hGLP-1R (Homo sapiens, UniProt P43220); assay: hGLP-1R-CRE-Luciferase-HEK293 reporter gene assay (antagonism of GLP-1); format: cell-based; parameters: expressed in transfected cells; settings: 2.5 ng/mL GLP-1, luciferase reporter
T2 sequence (P43220 24-463): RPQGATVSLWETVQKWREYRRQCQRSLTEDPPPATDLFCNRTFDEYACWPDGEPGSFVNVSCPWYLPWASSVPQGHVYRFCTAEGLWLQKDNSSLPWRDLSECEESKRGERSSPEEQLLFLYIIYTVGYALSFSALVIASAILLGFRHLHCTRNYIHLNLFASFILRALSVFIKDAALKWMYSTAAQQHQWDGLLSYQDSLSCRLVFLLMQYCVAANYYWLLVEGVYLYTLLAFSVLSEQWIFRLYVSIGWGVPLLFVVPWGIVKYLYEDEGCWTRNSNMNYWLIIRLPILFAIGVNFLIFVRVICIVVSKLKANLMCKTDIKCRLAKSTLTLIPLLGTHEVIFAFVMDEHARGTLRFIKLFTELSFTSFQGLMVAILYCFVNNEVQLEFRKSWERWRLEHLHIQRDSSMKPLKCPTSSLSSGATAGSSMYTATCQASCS
Experimental: HEK293 cells overexpressing hGLP-1R were transfected with a plasmid containing a luciferase expression cassette driven by multiple copies of cAMP response elements (CRE), to obtain a stably transfected hGLP-1R-CRE-Luciferase-HEK293 cell line containing the luciferase-expressing plasmid.
(§2) 100 μL of Bright-Glo reagent (Promega Corporation) was added, and the plate was tapped gently to facilitate the mixing of the solution. Chemiluminescence value was read with microplate reader after three minutes. […] The data were analyzed by four-parameter curve fitting with GraphPad Prism 9, and IC50 was calculated.
as §2

C57BL/6 mice = assay: IPGTT in C57BL/6 mice (exogenous GLP-1 added); format: in vivo, mouse; settings: wildtype C57BL/6, single s.c. injection, GLP-1 25.0 nmol/kg i.p.
Experimental: 7-9-week-old male C57BL/6 mice (22-26 g) were assigned into 5 groups, with 5 mice in each group, and the mice in each group were treated according to the scheme shown in Table 6. The antibody treatment groups were given a single subcutaneous injection, and were fasted for 18 hours after the administration. […] The blood glucose levels of the mice before (0 min) and 15 min, 30 min. 60 min, 90 min, 120 min and 180 min after the administration of glucose were measured with blood glucose meter. The AUCs of the blood glucose-time curves of each mouse from 0 to 180 min were calculated with GraphPad Prism 9. The blood glucose levels and the AUCs were shown in Mean±SEM and the differences among groups were compared. Statistical differences were analyzed with One-way ANOVA. […] The significance markers were not shown in the line chart since they would overlap and be difficult to distinguish.

hGLP-1R [2] = target: T2, hGLP-1R; assay: cAMP HTRF antagonism assay in HEK293 transfected with human GLP-1R; format: cell-based; parameters: expressed in transfected cells; host or cells: HEK293 (ATCC, CRL-1573)
Experimental: as §1

[3] = target: T3, extracellular domain of hGLP-1R (NP_002053.3, aa 24-145) (Homo sapiens, UniProt P43220); assay: ELISA binding of antibodies to the extracellular domain of hGLP-1R
T3 construct: hGLP-1R (NP_002053.3, aa 24-145); made in house
T3 sequence (P43220 24-145): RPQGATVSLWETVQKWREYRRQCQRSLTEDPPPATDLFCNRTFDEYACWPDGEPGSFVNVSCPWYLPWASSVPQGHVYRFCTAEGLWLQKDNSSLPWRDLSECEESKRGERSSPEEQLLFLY
Experimental: The extracellular domain of hGLP-1R (NP_002053.3, aa 24-145) was expressed as a recombinant protein. An ELISA plate was coated with 10 μg/mL of hGLP-1R recombinant protein in PBS and incubated overnight at 4° C. The coating solution was removed thereafter and the plate was washed with PBST (PBS+0.05% Tween). Next, the plate was blocked with 1% BSA, washed with PBST, then added with 50 μL antibody (P16288 or P16289) of 6.7, 2.2, 0.44, 0.089, 0.018, 0.0036, 0.00071 or 0 nM, and incubated at room temperature for 60 minutes. After washed with PBST, the plate was added with horseradish peroxidase-labeled anti-human Fc antibody and incubated for 60 minutes. Then, after washed with PBST, the plate was added with TMB substrate for coloration, which was finally terminated by adding 0.5 M H2SO4. The absorbance was measured with microplate reader at 450 nm. The data were analyzed by four-parameter curve fitting with GraphPad Prism 9, and EC50 was calculated.

humanized GLP-1R mice = assay: IPGTT in humanized GLP-1R mice (exogenous GLP-1 added); format: in vivo, mouse
Experimental: 10-week-old female humanized GLP-1R mice (25-28 g, Shanghai Model Organisms Center Inc.) were assigned into 5 groups, with 5 mice in each group, and each group was treated according to the scheme in Table 6. The antibody treatment groups were subcutaneously injected with antibody, while the other groups were subcutaneously injected with vehicle (PBS) once a week for 2 consecutive weeks. IPGTTs were performed one day after the administration. The first subcutaneous administration of the antibody was on Day 0, and the second subcutaneous administration was on Day 7.
The blood glucose levels of the mice before (0 min) and 15 min, 30 min, 60 min, 90 min, 120 min and 180 min after the administration of glucose were measured with blood glucose meter. The AUCs of the blood glucose-time curves of each mouse from 0 to 180 min were calculated with GraphPad Prism 9. […] Statistical differences were analyzed with One-way ANOVA. […]
10-week-old female humanized GLP-1R mice (25-28 g) were assigned into 5 groups, with 5 mice in each group, and each group was treated according to the scheme in Table 10. […] The blood glucose levels of the mice before (0 min) and 15 min, 30 min, 60 min, 90 min, 120 min and 180 min after the administration of glucose were measured with blood glucose meter. The AUCs of the blood glucose-time curves of each mouse were calculated with GraphPad Prism 9. […]

T1 sequence (F8V479 24-463): as the sequence (P43220 24-463) above, with S112N, F120S, S202G, L205V, L237F, W241R, I249V counted along it

B1: P16288: Fully human anti-GLP-1R IgG4 (S228P) antibody; heavy chain SEQ ID NO: 9, light chain SEQ ID NO: 10 (antibody)
heavy: QVQLVQSGAEMKKPGASVKVSCKTSGYRFSTYVISWVRQTPGQGLEWMGWISPYTGDIDYAQKFQGRVTITADESTSTAYMELSRLRSDDTAVYYCARERDGYNFPGMDVWGQGTTVTVSSASTKGPSVFPLAPCSRSTSESTAALGCLVKDYFPEPVTVSWNSGALTSGVHTFPAVLQSSGLYSLSSVVTVPSSSLGTKTYTCNVDHKPSNTKVDKRV[human IgG4 Fc with S228P (EU numbers) not listed]
light: DIQLTQSPSFLSASVGDRVTITCRASQGISSYLAWYQQKPGRAPKLLIYSASTLQRGVPSRFSGSGSGTDFTLTISSLQPEDYATYYCQQADSFPPSFGPGTKVDIKRTVAAPSVFIFPPSDEQLKSGTASVVCLLNNFYPREAKVQWKVDNALQSGNSQESVTEQDSKDSTYSLSSTLTLSKADYEKHKVYACEVTHQGLSSPVTKSFNRGEC
What does the source list for B1?
antagonism of activation of monkey GLP-1R by GLP-1 (in words) (Monkey GLP-1R): can antagonize the activation of human and monkey GLP-1R by GLP-1 at a similar level; antagonism of the activity of native GLP-1 at hGLP-1R (in words) (hGLP-1R [1]): antagonized by P16288 antibody in a dose-dependent manner; effect of antagonizing GLP-1 to raise blood glucose level (in words) (C57BL/6 mice): did not exhibit the effect of antagonizing GLP-1 to raise blood glucose level; antagonism of activation of human GLP-1R by GLP-1 (in words) (hGLP-1R [2]): can antagonize the activation of human and monkey GLP-1R by GLP-1 at a similar level; binding capability to the extracellular domain of hGLP-1R (in words) [3]: high ability of binding; also recorded: have binding capabilities; duration of regulatory role on blood glucose (humanized GLP-1R mice; P16288 s.c. Day 0 and Day 7, IPGTT up to Day 15): more than 8 days; antagonism of blood glucose reduction induced by exogenous GLP-1 (in words) (humanized GLP-1R mice; antibody s.c. once a week x2 (P16288 100 and 200 nmol/kg, P16289 200 nmol/kg), IPGTT Day 1, 8, 15, GLP-1 25.0 nmol/kg i.p.): can effectively antagonize the blood glucose reduction induced by exogenous GLP-1

Entries after “also recorded” stand apart in the source; their conditions may differ.
